# Whole data set: some 1,100 sequences, median “thermal melting temperature (Tm) of peptide-HLA complex” near 58, cut for the lowest 2% near 42. The list shows a part of the results.
# Target: HLA-A*02:01
# Experiment: thermal melting temperature (Tm) of peptide-HLA complex; higher = more thermostable pHLA complex
# Conditions: C1R-A*02:01
# 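Further: cell lysates heated 10 min at 37–73 °C, remaining pHLA pulled down with pan-class I antibody, peptides quantified by DIA-MS versus 37 °C, Tm where half the complex is lost.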
row,Sequence,thermal melting temperature [°C]
1,HLLNESPML,60.2
2,GLLDLPFRVGV,57.6
3,GLYSLSSVVTV,55.3
4,ALVDHLNVGV,63
5,VLGRVNLV,45.9
6,RLSPVSPAL,61.2
7,KMDPIISRV,55.3
8,TLIDLPGITKV,54.3
9,VLAPHLTRA,53
10,YLPEDFIRVG,46.8
11,YLLDYPNNLL,57.4
12,SLYEMVSRV,59.7
13,TIFAGTLITA,52.1
14,KLYQEVEIASV,61
15,SQLDISEPYKV,54
16,WVDETLSSV,60.7
17,ILLDNDHYA,50.4
18,NQFPGFKEV,55.2
19,KVFDPVPVGV,57.6

row,Sequence,thermal melting temperature [°C]
1,ALFQRPPLI,63.4
2,FLLLPGPSAA,47
3,AMNDILAQV,62.2
4,YLPPATQVV,60.3
5,RLAEVGQYEQV,56.3
6,VLQTNDLTSV,55.7
7,RLIEESVTV,61.3
8,ALAPAPPQV,62.1
9,TLLTDPPTA,59.5
10,SLHPDLIYNV,62
11,KLDPATSAVTV,57.3
12,ILQDRLNQV,56.8
13,SLHEFLVNL,61.5
14,VLMQDSRLYL,58
15,ALSSVIKEL,62.4
16,VMFRTPLASV,55
17,TLSERLWGL,61.8
18,FLPPAQVTV,57.7
19,KLDSPRVTV,54.1

row,Sequence,thermal melting temperature [°C]
1,GLIDGRLTI,54
2,ALVDQRELYL,59.1
3,SLMDPNKFLLL,55.1
4,ALPDQGIAKA,50.7
5,SLSEKQYFL,62.7
6,AMLAVLHTV,62.9
7,KMWEEAISL,59.2
8,YQLEAEFVGV,58.7
9,YLLPAIVHI,65.3
10,VLYGPKIDRA,50
11,LLFEGEKITI,55.8
12,ILDDSPKEI,46.6
13,NLVEKTPAL,54.9
14,YLNHLEPPV,62.2
15,AISEVIGKITA,58.6
16,RVSDINFTL,60.1
17,LLIKQVVEV,62
18,VFDDVQKTL,57.5
